Results from PMC4336329 (PLoS ONE, 2015).
The campaign covered roughly 310,000 compounds. About 14,000 (4.5%) showed an effect of 50% or more. The effect is printed as a negative number. Some of the results follow.

biological target: human ether-à-go-go-related gene (hERG) potassium channel (human, UniProt Q12809); assay: primary screen, population patch clamp on CHO cells stably expressing hERG
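Note: peak tail current of the secondary pulse compared with the same well before compound.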

human ether-à-go-go-related gene (hERG) potassium channel, sequence (Q12809 whole entry, looked up): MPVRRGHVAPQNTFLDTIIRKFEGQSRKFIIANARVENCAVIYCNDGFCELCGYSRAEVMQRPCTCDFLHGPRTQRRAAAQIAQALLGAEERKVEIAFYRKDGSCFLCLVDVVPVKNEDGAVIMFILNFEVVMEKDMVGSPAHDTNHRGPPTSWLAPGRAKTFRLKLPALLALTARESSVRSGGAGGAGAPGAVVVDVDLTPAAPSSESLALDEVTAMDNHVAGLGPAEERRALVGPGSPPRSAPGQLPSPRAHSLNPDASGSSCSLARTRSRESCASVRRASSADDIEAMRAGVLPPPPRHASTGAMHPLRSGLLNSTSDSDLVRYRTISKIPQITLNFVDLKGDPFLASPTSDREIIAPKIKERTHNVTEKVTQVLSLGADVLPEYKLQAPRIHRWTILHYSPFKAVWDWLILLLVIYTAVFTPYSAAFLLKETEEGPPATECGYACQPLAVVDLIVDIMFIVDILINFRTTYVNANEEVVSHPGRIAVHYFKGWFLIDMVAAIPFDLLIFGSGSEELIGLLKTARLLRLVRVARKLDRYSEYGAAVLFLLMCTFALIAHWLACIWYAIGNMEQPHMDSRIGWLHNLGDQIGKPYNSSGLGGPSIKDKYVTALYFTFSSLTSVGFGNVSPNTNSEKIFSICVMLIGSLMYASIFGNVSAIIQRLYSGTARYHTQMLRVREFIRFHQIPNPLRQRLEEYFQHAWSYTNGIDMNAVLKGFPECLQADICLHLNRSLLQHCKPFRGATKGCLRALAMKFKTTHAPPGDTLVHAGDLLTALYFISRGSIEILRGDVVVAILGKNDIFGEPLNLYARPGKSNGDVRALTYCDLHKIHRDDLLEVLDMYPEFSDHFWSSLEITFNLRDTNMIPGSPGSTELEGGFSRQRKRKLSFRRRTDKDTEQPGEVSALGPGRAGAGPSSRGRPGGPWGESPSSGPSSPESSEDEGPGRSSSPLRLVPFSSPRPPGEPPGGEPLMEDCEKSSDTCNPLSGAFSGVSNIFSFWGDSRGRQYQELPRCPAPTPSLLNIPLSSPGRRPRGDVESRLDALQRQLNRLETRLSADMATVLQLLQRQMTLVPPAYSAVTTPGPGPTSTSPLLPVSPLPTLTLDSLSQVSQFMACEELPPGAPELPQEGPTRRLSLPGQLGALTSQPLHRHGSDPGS

Row | SMILES | hERG current change (%, negative = inhibition) at 10uM
1 | COc1cc(C2=Nc3ccc(Br)cc3C(c3ccccc3)N2CC(=O)NN)cc(OC)c1OC (centres unmarked) | -32.6%
2 | O=C(c1cccnc1)N1CCN(C(=O)c2cccs2)CC1 | 9.53%
3 | O=C(O)c1ccc(CN(Cc2ccccc2)S(=O)(=O)c2ccc(Cl)cc2)cc1 | -9.67%
4 | COc1ccc(S(=O)(=O)Nc2ccccc2C(=O)NCc2ccco2)cc1Br | -16.9%
5 | CCOc1cc(NC(=S)NCCCN2CCOCC2)c(OCC)cc1NC(=O)c1cccs1 | 10.8%
6 | CC1=C(C(=O)OCc2ccccc2)C(c2ccc(C(C)(C)C)cc2)NC(=O)N1CCCCCC(=O)O (centres unmarked) | -7.78%
7 | CC(=O)Nc1ccc(NC(=O)COc2ncnc3ccccc23)cc1 | -7.63%
8 | COc1ccc(N2CC(O)(c3ccc(OC(F)F)cc3)[N+]3=C2CCCC3)cc1.[Br-] (centres unmarked) | -70%
9 | C=C1CCN(C(C)C(=O)O)S(=O)(=O)c2ccccc21 (centres unmarked) | 14.1%
10 | COc1ccc(NC(=O)CCNS(=O)(=O)c2ccc(Br)s2)cc1 | -10.1%
11 | CC(C)(C)C(=O)N1CCN(c2ncccc2C(F)(F)F)CC1 | 1.88%
12 | COc1cccc(N2CCN(Cc3cccc(Cl)c3)CC2)c1 | -2.96%
13 | CCOC(=O)c1c(/N=C/c2c(O)n(-c3ccccc3F)c(=S)[nH]c2=O)sc2c1CCCC2 | 14.5%
14 | Cc1ccccc1NC(=O)c1ccc(C)c(S(=O)(=O)N2CCN(C)CC2)c1 | 12.3%
15 | CNC(=O)O/N=C(\N)Cc1csc2ccccc12 | 11.6%
16 | CCn1c(=O)cc(OCC(=O)NC2CCCCC2)c2ccccc21 | 15.4%
17 | COCc1ccc(C(=O)Nc2ccccc2C(=O)NCc2cccnc2)cc1 | 6.5%
18 | CCOC(=O)C1CCCCN1Cc1cn(C)nc1-c1ccccc1F (centres unmarked) | 4.65%
19 | Cc1cc(C(=O)COC(=O)C2CCN(C(=O)c3ccc(Cl)cc3)CC2)c(C)n1CC1CCCO1 (centres unmarked) | -15.2%
20 | CCOc1ccc(Cl)cc1CN1CCOCC1.Cl | -1.13%
21 | CC(C)(O)C#Cc1ccc(CN2CCN(C3CCCCC3)C(CCO)C2)cc1 (centres unmarked) | -11.8%
22 | O=[N+]([O-])c1ccccc1S(=O)(=O)N1CCN(Cc2ccccc2)CC1 | -34.6%

Row | SMILES | hERG current change (%, negative = inhibition) at 10uM
23 | O=C(NCc1ccc(Cl)cc1)C1CCN(S(=O)(=O)c2ccc(N3CCCC3=O)cc2)CC1 | 10%
24 | COC(C/C=C\[C@H](O)COCc1ccccc1)OC | 14.7%
25 | O=C(O)C(=O)O.c1ccc(CN2CCN(CCOCCOc3ccc4c(c3)CCC4)CC2)cc1 | -5.19%
26 | CC(C)CCOc1ccc(C(CC(N)=O)C(=O)O)cc1 (centres unmarked) | 22.6%
27 | O=C(CSc1nc(-c2ccccc2)cc(C(F)(F)F)n1)N1CCOCC1 | -11.9%
28 | O=S(=O)(Nc1cccc(-c2ccc(N3CCCCCC3)nn2)c1)c1ccc(C(F)(F)F)cc1 | 18.6%
29 | O=S(=O)(c1ccc(Cl)c(F)c1)N1CCC(c2nc(-c3ccncc3)no2)CC1 | -29.4%
30 | COc1ccc(C(C)=O)cc1COc1cccc2c1OC(C)(C)C2 | -2.38%
31 | O=C(NC(=S)NCc1ccccc1)c1ccc(Br)cc1 | 17.3%
32 | Cc1cc(C)n2ncc(/C(N)=N/OC(=O)Nc3ccccc3)c2n1 | -14.7%
33 | CCOc1ccccc1NC(=O)CCC(=O)Nc1ccc2nc(N3CCN(C)CC3)cc(C)c2c1 | 3.51%
34 | Cc1cccc(-n2ncc3c2CCCC3NC(=O)C2CCOCC2)c1C (centres unmarked) | 6.59%
35 | CC(C)CN(C(=O)COC(=O)COc1ccc2ccccc2c1)c1c(N)n(Cc2ccccc2)c(=O)[nH]c1=O | -5.49%
36 | CC1CN(CCOCCSc2ccc(Cl)cc2)CC(C)O1.O=C(O)C(=O)O (centres unmarked) | -23.3%
37 | CC(C(=O)Nc1sccc1C(N)=O)N1C(=O)C2CC=CCC2C1=O (centres unmarked) | -2.11%
38 | COc1ccc(-c2ccc(SCC(=O)N3CCOCC3)nn2)cc1 | -5.76%
39 | COc1cccc(N2CC(NS(=O)(=O)c3ccc4ccccc4c3)CC2=O)c1 (centres unmarked) | -4.12%
40 | Cn1c(=O)c2c(nc(NC3CCCCC3)n2Cc2ccccc2)n(C)c1=O | 14.2%
41 | NC(=O)C1CCN(C(=O)CN(C2CCCCC2)S(=O)(=O)c2ccc(F)cc2)CC1 | -13.4%
42 | Cc1ccc(N2CC(C(=O)NC(C)CCc3ccccc3)CC2=O)cc1 (centres unmarked) | -38.9%
43 | O=C(NCc1ccccn1)c1cn(Cc2ccccc2)nn1 | 3.51%
44 | Cc1cccc(C(=O)NNC(=O)c2ccccc2C)c1 | -5.22%
